± gives the standard deviation of the averaged measurements. This is one part of the list.
System: PfAP2-LT AP2 domain (GST-tagged)
Assay: gcPBM binding intensity (ln(normalized median fluorescence intensity)); higher = stronger DNA binding
Procedure, shortened: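 Each value is the highest Masliner-normalised natural-log median intensity across replicate spots of either orientation of a probe. The probes were primer-extended double-stranded 36-bp intergenic genomic sequences on an Agilent 4 × 180k array, alongside negative controls, exposed for 1 h to GST-tagged P. falciparum DNA-binding domains expressed in E. coli. Bound protein was picked up with Alexa488 anti-GST antibody and scanned at 488 nm.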

| Sequence | gcPBM binding intensity (ln) |
| --- | --- |
| ATGTGATGTTATATATGTACTTATTTTTTAATAAGG [XGTACX_site1786] | 8.63 ± 0.37 |
| ACACTATCTTAGATTTGTACATATTTATATATGTAT [XGTACX_site8739] | 9.03 ± 0.42 |
| TCGGTATCTGTTCAAAGTACACATTTGTATACAAAA [XGTACX_site1890] | 8.64 ± 0.37 |
| TATATAACATATGGGACACACATGCAACTGTTATAT [CACACA_site3792] | 9.13 ± 0.34 |
| TATTTTTACAATGGTAGTACCATTTTGAATCTTTGT [XGTACX_site6092] | 8.75 ± 0.42 |
| CACCCGCACGTATTTGCACACATTGCCACGTAATTA [CACACA_site5786] | 9.51 ± 0.3 |
| TGCTTATCCATTTCTACACACAAAAAAAAAAAAAAA [CACACA_site37] | 8.65 ± 0.42 |
| TTATATTATAACAAACGTACGAATTTTATACAAATA [XGTACX_site7258] | 8.53 ± 0.43 |
| TATATATATTTATGTTGTACAAAATATTATTACGTA [XGTACX_site5384] | 8.57 ± 0.36 |
| AAATGGGTTTATTTAACACACAAAAGAAAAAATATA [CACACA_site1938] | 8.71 ± 0.51 |
| ATATATATATATATATGTACATATATACATATATGT [XGTACX_site1521] | 9.81 ± 0.33 |
| TTTTTTTTTTTTTGATGTACAATAATTAAAGAGTAA [XGTACX_site8403] | 8.18 ± 0.46 |
| AGTAGTCTGGAGAAGAGTACATAGTTTCTGGTAGCT [XGTACX_site2023] | 8.8 ± 0.35 |
| AATAACTATATATGTGTGCACAAAAATTTGACATAA | 9.3 ± 0.37 |
| AGTTTTTATTAAAACAAAATTTAATTATAACGTTGA [XGTACX_negctrl_site298] | 8.23 ± 0.59 |
| CGTAGCCCCACTAACACACACAAATATACTCAATCA [CACACA_site5587] | 9.41 ± 0.38 |
| TATATATATATATACACACATACATATATATATTTG [CACACA_site857] | 9.74 ± 0.25 |
| TTATATGTATGAACAAGTACATGCTATAATTATAAA [XGTACX_site1399] | 8.57 ± 0.46 |
| AACATATACACGAACACACACACATATATATATATA [CACACA_site502] | 10.3 ± 0.26 |

| Sequence | gcPBM binding intensity (ln) |
| --- | --- |
| AAAACAAATGAGTACACACACATAAAAATTGAAAAT [CACACA_site199] | 9.49 ± 0.39 |
| TAAAGAAAAAAATGTTGTACTTTATGAAACATATTT [XGTACX_site412] | 8.38 ± 0.45 |
| ATATTTACCATTGTATGTACATATATAAAATATATC [XGTACX_site3237] | 8.83 ± 0.44 |
| GTATATATATATATATGTACATATTTAGAGTTCTGT [XGTACX_site5357] | 9.38 ± 0.41 |
| GGTAGGTGGATATATACACACATATATTATAGATAT [CACACA_site7021] | 9.24 ± 0.51 |
| CACAGATATATACATACACACATATATACACATATA [CACACA_site6323] | 9.39 ± 0.32 |
| ATCGAGAAAAATAAAATAATACAATTTCTTTAAATA [XGTACX_negctrl_site162] | 8.4 ± 0.45 |
| ATTCCCTTAAGAAACTGTACAAAACTTTCTTCGATT [XGTACX_site775] | 8.6 ± 0.43 |
| TATACATAAATTATATGTACTGAAAATACATAATTA [XGTACX_site3626] | 8.54 ± 0.42 |
| GTGTGTGTATATATTTGTACATATATTTAAACATAT [XGTACX_site1074] | 9.44 ± 0.35 |
| CATTATAAGAAACACACACACATATATATATATATA [CACACA_site1051] | 10.2 ± 0.25 |
| AAAAAAAAAAATATATTATTTTACTTGTTTATTTTA [CACACA_negctrl_site1447] | 8.31 ± 0.56 |
| AAAAAGAAGAATATATGTACACAAAATTTATGAGTT [XGTACX_site8609] | 8.86 ± 0.54 |
| TAAACCAAACAATTATGTATAAGATGTATATATATA [GTGCAC_negctrl_site438] | 8.71 ± 0.45 |
| AAATTCTTAACCCAACGTACATATAATAAATTCTTA [XGTACX_site8538] | 8.57 ± 0.33 |
| TTTTTTTTTTCTTAGGTGCAAAAAATAAGTATATAT [GTGCAC_site9394] | 8.32 ± 0.38 |
| AAAAAAAAAAGAACCCGTACATAAATAATATATATA [XGTACX_site164] | 8.91 ± 0.45 |
| TTAATTACATGTTATTGTACGTATTTTCTATCTATC [XGTACX_site844] | 9.12 ± 0.42 |
| GAAACATAAAAATATATTGAAATAGTATCATGGGTA [CACACA_negctrl_site352] | 8.82 ± 0.48 |

| Sequence | gcPBM binding intensity (ln) |
| --- | --- |
| TATAGTTATATTAGAAGTACTTCATTTTAACATATT [XGTACX_site7101] | 8.62 ± 0.38 |
| AAAAAAAAAAAAGAAACACACACATTTGTATATAAT [CACACA_site8648] | 9.29 ± 0.45 |
| TAAAAAATAAAATAATGTACATATGAATTATATATT [XGTACX_site8398] | 8.69 ± 0.47 |
| TTTTTTTTGTATTAATGTACATATAACTTTTTTTTT [XGTACX_site7903] | 8.6 ± 0.51 |
| CATACAGACGAACACACACACATATAAATATAAATA [CACACA_site6443] | 9.7 ± 0.38 |
| AAATATTATATATATACACACACACCGGCATGCACA [CACACA_site7916] | 9.62 ± 0.28 |
| AACCACATGGTGTAATGTACATTACCTTAACAATAA [XGTACX_site3055] | 9.01 ± 0.52 |
| TATAATAAAATTGGTAGTACATTAATTTATGTATAG [XGTACX_site3059] | 8.55 ± 0.45 |
| TATTATTTTTTTTTTTGTACATATATGTATATATAT [XGTACX_site8471] | 8.85 ± 0.53 |
| AAAAAAATTCTTGGCGCACACACTTTAAAAATTAAA [CACACA_site597] | 8.93 ± 0.49 |
| AAGGATTACAAAAAAAGTACAAATGGATTTTTTCCC [XGTACX_site8905] | 8.6 ± 0.57 |
| CTTACAAATAAACAACGTACTTATTCGAATTATGCT [XGTACX_site2431] | 8.8 ± 0.36 |
| AAAATTTTTTAACACTGTACTTGTAATATTAAAACT [XGTACX_site8369] | 8.53 ± 0.42 |
| GTTTTAAAATTAAATATTATGGCATAATTCAAGAAA [GTGCAC_negctrl_site721] | 8.28 ± 0.4 |
| AAATGCGCCATGTGTACACATATATATATATATATA [CACACA_site4649] | 10.1 ± 0.18 |
| TACATATATAAAAATTGTACACTTCATAAGAAAAAA [XGTACX_site4347] | 8.65 ± 0.5 |
| TTAAATAAGTTCTTCACACATATATATATATATATA [CACACA_site4742] | 9.51 ± 0.24 |
| GGAACATATGAACTCACACACATTTTCACTTAAATA [CACACA_site3684] | 9.3 ± 0.52 |
| TTTATACAATTAGACACACACAAAAAGTATAAATAT [CACACA_site6637] | 9.25 ± 0.33 |
